# The campaign covered roughly 2,000 compounds. About 110 (5.5%) showed an effect of 50% or more. The list shows a part of the results.
# Target: Genome polyprotein (dengue virus type 2) (UniProt P29990)
# [1] = Thailand/16681/1984, Concentration 25.0 uM, Number of replicates 1.0
structure (smiles),measurement,setting,value
CS(=O)(=O)c1ccc(CN2CCC(c3c[nH]c4cccnc34)CC2)cc1,inhibition,"Thailand/16681/1984, Concentration 49.5 uM, Number of replicates 2.0, Standard deviation 0.5966710799073923 %",-0.147%
same,inhibition,"Thailand/16681/1984, Concentration 99.01 uM, Number of replicates 2.0, Standard deviation 0.18514537353696 %",1.01%
same,inhibition,"Thailand/16681/1984, Concentration 198.0 uM, Number of replicates 2.0, Standard deviation 0.21112342655361976 %",1.68%
CCn1ccnc(N2CCC[C@H](c3c[nH]c4ccccc34)C2)c1=O,inhibition,"Thailand/16681/1984, Concentration 50.0 uM, Number of replicates 2.0, Standard deviation 0.8053197278101494 %",11.3%
same,inhibition,"Thailand/16681/1984, Concentration 100.0 uM, Number of replicates 2.0, Standard deviation 0.062322039130876875 %",18.6%
same,inhibition,"Thailand/16681/1984, Concentration 200.0 uM, Number of replicates 2.0, Standard deviation 0.5040021297369135 %",15.4%
OB1CCc2c(cccc2N2CC[C@@H](O)C2)O1,inhibition,"Thailand/16681/1984, Concentration 49.5 uM, Number of replicates 2.0, Standard deviation 2.1653827241885084 %",-1.07%
same,inhibition,"Thailand/16681/1984, Concentration 99.01 uM, Number of replicates 2.0, Standard deviation 1.9510885480745654 %",-0.363%
same,inhibition,"Thailand/16681/1984, Concentration 198.0 uM, Number of replicates 2.0, Standard deviation 2.0113725552722737 %",1.02%
COCCN(C(=O)C1CCN(c2ccc(C=O)cc2)CC1)C1CCN(C)CC1,inhibition,[1],17.6%
C[C@@H](NC(=O)OCc1ccccc1)C(=O)Nc1cccc(CN)c1,inhibition,"Thailand/16681/1984, Concentration 49.5 uM, Number of replicates 2.0, Standard deviation 1.8366578313187596 %",-7.57%
same,inhibition,"Thailand/16681/1984, Concentration 198.0 uM, Number of replicates 2.0, Standard deviation 1.0835833369227144 %",-9.56%
NC(=O)[C@H]1CCCN(Cc2c[nH]c3ccccc23)C1,inhibition,"Thailand/16681/1984, Concentration 49.5 uM, Number of replicates 2.0, Standard deviation 2.5363307513649556 %",-4.76%
same,inhibition,"Thailand/16681/1984, Concentration 99.01 uM, Number of replicates 2.0, Standard deviation 3.0476015265960577 %",-3.48%
same,inhibition,"Thailand/16681/1984, Concentration 198.0 uM, Number of replicates 2.0, Standard deviation 3.189992230846324 %",-2.38%
CCOCCN(CCOCC)C(=O)C1CCN(c2ccc(C=O)cc2)CC1,inhibition,[1],14.5%
Cc1cc(CO)c2cccc(Cc3cccc(C(=O)NCC(N)=O)c3)c2n1,inhibition,"Thailand/16681/1984, Concentration 49.95 uM, Number of replicates 2.0, Standard deviation 0.5174294413229081 %",2.44%
same,inhibition,"Thailand/16681/1984, Concentration 99.9 uM, Number of replicates 2.0, Standard deviation 1.3216010889796208 %",17.6%
O=Cc1ccc(N2CCC(C(=O)NCCc3cc(F)cc(F)c3)CC2)cc1,inhibition,[1],10.6%
O=Cc1ccc(N2CCC(C(=O)Nc3ccc(Br)c(C(F)(F)F)c3)CC2)cc1,inhibition,[1],12.2%
CCCCCC(=O)N[C@@H](Cc1ccc(CN)cc1)C(=O)N1CCCCC1,inhibition,"Thailand/16681/1984, Concentration 49.5 uM, Number of replicates 2.0, Standard deviation 2.4035677992340028 %",-1.07%
same,inhibition,"Thailand/16681/1984, Concentration 99.01 uM, Number of replicates 2.0, Standard deviation 1.814641666355821 %",0.103%
same,inhibition,"Thailand/16681/1984, Concentration 198.0 uM, Number of replicates 2.0, Standard deviation 1.7246380196648983 %",0.931%
O=Cc1ccc(N2CCC(C(=O)N3CCC4(CC3)NC(=O)NC4=O)CC2)cc1,inhibition,[1],12.4%
COc1ccc2nc(C)c(C)nc2c1N,inhibition,"Thailand/16681/1984, Concentration 49.95 uM, Number of replicates 2.0, Standard deviation 5.411155992937637 %",-4.7%
same,inhibition,"Thailand/16681/1984, Concentration 99.9 uM, Number of replicates 2.0, Standard deviation 6.1761869582003435 %",-2.52%
Cc1cc(CO)c2cccc(Cc3cccc(NC(=O)COc4cccc(CN)c4)c3)c2n1,inhibition,"Thailand/16681/1984, Concentration 49.95 uM, Number of replicates 2.0, Standard deviation 2.359561979675839 %",16.8%
same,inhibition,"Thailand/16681/1984, Concentration 99.9 uM, Number of replicates 2.0, Standard deviation 1.6748173047848074 %",34.6%
CN1CCC(N(C(=O)C2CCN(c3ccc(C=O)cc3)CC2)C2CCN(C)CC2)CC1,inhibition,[1],11.8%
CC(C)CN1CCN(C(=O)C2CCN(c3ccc(C=O)cc3)CC2)[C@@H](C)C1=O,inhibition,[1],13.8%
O=Cc1ccc(N2CCC(C(=O)NC[C@@H](c3ccc(Cl)cc3)N3CCCC3)CC2)cc1,inhibition,[1],13.2%
O=Cc1ccc(N2CCC(C(=O)NCCN3C(=O)CSC3=O)CC2)cc1,inhibition,[1],15.5%
Cc1cc(CO)c2cccc(Cc3cccc(C(=O)NCc4ccc(C(N)=O)cc4)c3)c2n1,inhibition,"Thailand/16681/1984, Concentration 49.95 uM, Number of replicates 2.0, Standard deviation 1.5788782649320652 %",-6.46%
same,inhibition,"Thailand/16681/1984, Concentration 99.9 uM, Number of replicates 2.0, Standard deviation 2.3363374645660926 %",-3.45%
COc1cc(CS(=O)(=O)CCc2ccc(F)cc2)nc(N2CCNCC2)n1,inhibition,"Thailand/16681/1984, Concentration 49.5 uM, Number of replicates 2.0, Standard deviation 0.27080732584880574 %",-5.05%
same,inhibition,"Thailand/16681/1984, Concentration 99.01 uM, Number of replicates 2.0, Standard deviation 1.3969449870138175 %",-3.58%
same,inhibition,"Thailand/16681/1984, Concentration 198.0 uM, Number of replicates 2.0, Standard deviation 0.7656973069376639 %",-2.76%
CC(C)(C)c1cc(NC(=O)C2CCN(c3ccc(C=O)cc3)CC2)n(-c2ccccc2)n1,inhibition,[1],14.5%
O=C(NCCn1cc([C@H]2CCOC2)cn1)c1cnn([C@H]2CCCNC2)c1,inhibition,"Thailand/16681/1984, Concentration 49.5 uM, Number of replicates 2.0, Standard deviation 1.3379889637924147 %",-3.53%
same,inhibition,"Thailand/16681/1984, Concentration 99.01 uM, Number of replicates 2.0, Standard deviation 5.525628350779771 %",-0.861%
same,inhibition,"Thailand/16681/1984, Concentration 198.0 uM, Number of replicates 2.0, Standard deviation 3.8909781727376043 %",-4.67%
O=Cc1ccc(N2CCC(C(=O)N[C@H]3CCOc4ccc(F)cc43)CC2)cc1,inhibition,[1],15.7%
O=Cc1ccc(N2CCC(C(=O)N[C@H]3CCCN(c4cnccn4)C3)CC2)cc1,inhibition,[1],9.34%
C[C@@H](NCc1ccc(C(N)=O)cc1)c1ccc(OCc2ccccc2)cc1,inhibition,"Thailand/16681/1984, Concentration 49.5 uM, Number of replicates 2.0, Standard deviation 1.6752456853530722 %",0.14%
same,inhibition,"Thailand/16681/1984, Concentration 99.01 uM, Number of replicates 2.0, Standard deviation 1.116678580733439 %",0.358%
same,inhibition,"Thailand/16681/1984, Concentration 198.0 uM, Number of replicates 2.0, Standard deviation 0.6068608391781741 %",-0.175%
CC(C)Cn1cccc(C(=O)NC2CCN(C)CC2)c1=O,inhibition,"Thailand/16681/1984, Concentration 49.5 uM, Number of replicates 2.0, Standard deviation 1.1325904279657266 %",-1.98%
same,inhibition,"Thailand/16681/1984, Concentration 99.01 uM, Number of replicates 2.0, Standard deviation 1.6159051142858558 %",-2.07%
same,inhibition,"Thailand/16681/1984, Concentration 198.0 uM, Number of replicates 2.0, Standard deviation 1.619546998440991 %",-1.15%
O=Cc1ccc(N2CCC(C(=O)N3CCN(Cc4c(F)cccc4Cl)CC3)CC2)cc1,inhibition,[1],12.1%
CC(C)c1cccc(C(C)C)c1NC(=O)C1CCN(c2ccc(C=O)cc2)CC1,inhibition,[1],12.7%
CC(C)COc1ccc(CNC(=O)C2CCN(c3ccc(C=O)cc3)CC2)cc1,inhibition,[1],2.46%
COc1cncc(-c2ccccc2C(=O)Nc2cnn(C)c2)c1,inhibition,"Thailand/16681/1984, Concentration 49.5 uM, Number of replicates 2.0, Standard deviation 4.873700787377785 %",-3.38%
same,inhibition,"Thailand/16681/1984, Concentration 99.01 uM, Number of replicates 2.0, Standard deviation 4.283563999447018 %",-2.98%
same,inhibition,"Thailand/16681/1984, Concentration 198.0 uM, Number of replicates 2.0, Standard deviation 3.278109642747346 %",-2.42%
O=Cc1ccc(N2CCC(C(=O)NCc3ccc4c(c3)OCCO4)CC2)cc1,inhibition,[1],12.2%
O=Cc1ccc(N2CCC(C(=O)Nc3c(Cl)cccc3[N+](=O)[O-])CC2)cc1,inhibition,[1],16.2%
CN(C)CC[C@H]1CCCCN1C(=O)C1CCN(c2ccc(C=O)cc2)CC1,inhibition,[1],12.7%
Cc1cc(CO)c2cccc(Cc3ccccc3NC(=O)COc3cccc(CN)c3)c2n1,inhibition,"Thailand/16681/1984, Concentration 49.95 uM, Number of replicates 2.0, Standard deviation 1.3016362954274043 %",16.2%
same,inhibition,"Thailand/16681/1984, Concentration 99.9 uM, Number of replicates 2.0, Standard deviation 0.9589170051249469 %",36.2%
c1ccc2c([C@H]3CCN(Cc4cc(-c5ccncc5)[nH]n4)C3)c[nH]c2c1,inhibition,"Thailand/16681/1984, Concentration 49.5 uM, Number of replicates 2.0, Standard deviation 1.1828738098753457 %",-1.48%
same,inhibition,"Thailand/16681/1984, Concentration 99.01 uM, Number of replicates 2.0, Standard deviation 1.3116025078136844 %",-0.346%
same,inhibition,"Thailand/16681/1984, Concentration 198.0 uM, Number of replicates 2.0, Standard deviation 1.2038517715189156 %",1.4%
c1cc(CN2CCC[C@H](c3c[nH]c4ccccc34)C2)c2[nH]ccc2c1,inhibition,"Thailand/16681/1984, Concentration 50.0 uM, Number of replicates 2.0, Standard deviation 0.4266990775965363 %",3.91%
same,inhibition,"Thailand/16681/1984, Concentration 100.0 uM, Number of replicates 2.0, Standard deviation 0.08925842718897734 %",2.52%
same,inhibition,"Thailand/16681/1984, Concentration 200.0 uM, Number of replicates 2.0, Standard deviation 0.03646535850121636 %",-0.209%
O=Cc1ccc(N2CCC(C(=O)Nc3cccc(N4CCOCC4)c3)CC2)cc1,inhibition,[1],5.25%
CC[C@H](C)N(Cc1ccccc1)C(=O)C1CCN(c2ccc(C=O)cc2)CC1,inhibition,[1],15.2%
Cn1cc(NC(=O)c2ccccc2C(F)(F)F)c(-c2ccccc2CO)n1,inhibition,"Thailand/16681/1984, Concentration 49.5 uM, Number of replicates 2.0, Standard deviation 2.690411200151082 %",0.164%
same,inhibition,"Thailand/16681/1984, Concentration 99.01 uM, Number of replicates 2.0, Standard deviation 1.656230038829321 %",3.26%
same,inhibition,"Thailand/16681/1984, Concentration 198.0 uM, Number of replicates 2.0, Standard deviation 0.4386121372092316 %",5.18%
Cc1ccc2c(c1)C(=O)NCCN2S(=O)(=O)c1ccc(Oc2ccccc2Cl)cc1,inhibition,"Thailand/16681/1984, Concentration 49.5 uM, Number of replicates 2.0, Standard deviation 1.3317942199982835 %",3.76%
same,inhibition,"Thailand/16681/1984, Concentration 99.01 uM, Number of replicates 2.0, Standard deviation 0.1427776755398689 %",5.3%
same,inhibition,"Thailand/16681/1984, Concentration 198.0 uM, Number of replicates 2.0, Standard deviation 0.4641463839110716 %",7.48%
CC(C)(CO)NC(=O)c1cc(Cl)cc(NC(=O)c2cc(Cl)ccc2O)c1,inhibition,"Thailand/16681/1984, Concentration 49.5 uM, Number of replicates 2.0, Standard deviation 0.8854702210359225 %",8.85%
same,inhibition,"Thailand/16681/1984, Concentration 99.01 uM, Number of replicates 2.0, Standard deviation 1.285544965840733 %",17.3%
same,inhibition,"Thailand/16681/1984, Concentration 198.0 uM, Number of replicates 2.0, Standard deviation 0.761128925733871 %",30.7%
Cc1cc(CO)c2cccc(CC(=O)N3CCC(CN)CC3)c2n1,inhibition,"Thailand/16681/1984, Concentration 49.95 uM, Number of replicates 2.0, Standard deviation 0.0034621107240788793 %",-8.08%
same,inhibition,"Thailand/16681/1984, Concentration 99.9 uM, Number of replicates 2.0, Standard deviation 0.5836590412197755 %",1.32%
Cc1ccc(N)cc1NC(=O)c1ccc2c(c1)CCNCC2,inhibition,"Thailand/16681/1984, Concentration 99.9 uM, Number of replicates 2.0, Standard deviation 6.34893595313931 %",-4.39%
O=Cc1ccc(N2CCC(C(=O)Nc3ccc4c(c3)OC(F)(F)O4)CC2)cc1,inhibition,[1],10.8%
C[C@@H](Cc1ccc(C(F)(F)F)cc1)NC(=O)C1CCN(c2ccc(C=O)cc2)CC1,inhibition,[1],8.27%
C[C@H](NC(=O)C1CCN(c2ccc(C=O)cc2)CC1)c1ccc(S(C)(=O)=O)cc1,inhibition,[1],12.5%
